Measurements as given in article PMC4336329 (PLoS ONE, 2015).
Out of some 310,000 compounds screened, about 14,000 (4.5%) showed an effect of 50% or more. The effect is printed as a negative number. This is one part of the list.

What follows are compounds tested against human ether-à-go-go-related gene (hERG) potassium channel (human, UniProt Q12809) (assay: primary screen, population patch clamp on CHO cells stably expressing hERG).
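Note: peak tail current of the secondary pulse compared with the same well before compound.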

human ether-à-go-go-related gene (hERG) potassium channel, sequence (Q12809 whole entry, looked up): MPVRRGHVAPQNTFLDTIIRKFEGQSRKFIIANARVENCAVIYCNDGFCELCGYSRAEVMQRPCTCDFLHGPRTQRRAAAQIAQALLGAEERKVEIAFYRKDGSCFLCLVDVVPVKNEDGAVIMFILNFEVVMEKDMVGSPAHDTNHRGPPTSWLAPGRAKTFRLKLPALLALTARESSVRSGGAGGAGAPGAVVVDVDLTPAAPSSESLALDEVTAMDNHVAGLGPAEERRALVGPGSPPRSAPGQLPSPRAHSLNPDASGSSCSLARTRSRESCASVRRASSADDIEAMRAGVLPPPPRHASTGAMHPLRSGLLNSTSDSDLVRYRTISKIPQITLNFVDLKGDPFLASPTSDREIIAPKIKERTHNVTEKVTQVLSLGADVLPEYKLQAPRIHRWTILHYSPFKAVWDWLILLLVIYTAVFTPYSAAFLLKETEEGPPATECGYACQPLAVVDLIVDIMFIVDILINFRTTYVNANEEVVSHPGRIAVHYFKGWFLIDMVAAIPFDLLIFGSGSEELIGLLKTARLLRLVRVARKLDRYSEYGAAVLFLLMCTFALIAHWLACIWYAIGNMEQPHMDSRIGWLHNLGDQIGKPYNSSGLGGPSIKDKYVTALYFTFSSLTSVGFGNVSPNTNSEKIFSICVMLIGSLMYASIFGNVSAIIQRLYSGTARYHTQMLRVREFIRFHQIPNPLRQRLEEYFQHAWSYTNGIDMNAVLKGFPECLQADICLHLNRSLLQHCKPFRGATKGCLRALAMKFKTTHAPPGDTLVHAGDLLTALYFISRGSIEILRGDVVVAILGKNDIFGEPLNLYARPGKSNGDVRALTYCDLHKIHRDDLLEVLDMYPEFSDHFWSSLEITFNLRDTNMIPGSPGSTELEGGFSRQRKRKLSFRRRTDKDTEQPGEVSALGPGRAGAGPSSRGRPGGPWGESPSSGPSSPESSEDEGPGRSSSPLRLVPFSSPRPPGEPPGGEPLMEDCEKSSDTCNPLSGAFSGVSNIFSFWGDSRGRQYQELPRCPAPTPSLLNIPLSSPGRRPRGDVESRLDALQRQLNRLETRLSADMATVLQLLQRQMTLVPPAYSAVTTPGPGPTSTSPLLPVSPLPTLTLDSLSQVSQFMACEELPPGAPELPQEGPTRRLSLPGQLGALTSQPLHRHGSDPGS

Structure (SMILES)	hERG current change (%, negative = inhibition) at 10uM [%]
CCn1cc(C(=O)NCc2cccc(C(F)(F)F)c2)c(=O)c2ccc(C)nc21	2.71
CCc1c(C)sc(NC(=O)c2cc(-c3ccco3)on2)c1C#N	16.9
O=C1NC(=S)N(c2ccc(Cl)cc2)C(=O)/C1=C/N1CCN(C(=O)c2ccco2)CC1	7.25
O=C(NNc1ccc(Cl)cc1)c1sccc1Cl	0.717
CCOC(=O)NCc1ccc2[nH]c(C)cc2c1	22.5
COc1ccccc1NC(=O)N1CCCC1C(=O)NCC1CCCO1 (centres unmarked)	4.03
CCS(=O)(=O)Nc1ccc(Cc2ccncc2)cc1	-0.00702
Cc1cccc(NC(c2ccc(O)cc2)c2ccc3ccc(C)nc3c2O)n1 (centres unmarked)	27.9
O=C(O)c1cccc(-n2cccc2/C=C2\SC(=O)N(Cc3ccccc3F)C2=O)c1	4.94
O=C(CN1CCN(c2ccc(F)cc2)CC1)NCc1ccc(Cl)cc1	-62.7
CCCS(=O)(=O)N1CCC(C(=O)NC2CCCC(C)C2C)CC1 (centres unmarked)	7.15
CC(C)Cc1cc(C(=O)Nc2cc(Cl)ccc2Cl)no1	14.9
CCC1CCCCN1C(=S)Nc1ccc(C(C)=O)cc1 (centres unmarked)	-0.512
CCCC(C)NC(=O)C1CCN(C(=O)C2CC(=O)N(c3ccc(C)cc3)C2)CC1 (centres unmarked)	-3.88
COc1ccccc1CN1C[C@@H]2C[C@@H](c3ccc(Cl)cc3)N3CCC[C@@]23C1=O	-44.1
CCc1nn(C)c(N)c1C.Cl	12.7
CCOC(=O)c1c(NC(=O)CN2CCCCC2)sc2c1CCN(C(=O)OCC)C2	-10.9
O=C(Nc1ccccn1)C12CC3CC(CC(C3)C1)C2	-15
Cc1ccc(NC(=S)NNc2ncc(C(F)(F)F)cc2Cl)cc1	5.27

Structure (SMILES)	hERG current change (%, negative = inhibition) at 10uM [%]
CSCCC(NC(=O)c1ccc(Cl)cc1Cl)C(=O)OCC(N)=O (centres unmarked)	-5.4
CSc1nsc(SC)c1C(=O)O	30.5
CCOC1OC(=O)C(Cl)=C1Nc1ccc(C)cc1C (centres unmarked)	-0.98
O=C1/C(=N\S(=O)(=O)c2cccs2)C([n+]2cccc(Cc3ccccc3)c2)=C([O-])c2ccccc21	1.93
COC(=O)c1c(N)sc(C(=O)NCCc2ccccc2)c1C	4.54
O=C(N/N=C/c1ccc(O)c(O)c1)N/N=C/c1ccc(O)c(O)c1	7.82
Cc1[nH]c(=O)[nH]c(=O)c1/C=N/NC(=O)[C@@H](NC(=O)OC(C)(C)C)C(C)C	-0.509
Cc1[nH]c2ccccc2c1/C=C/c1nc2ccccc2c(=O)n1-c1ccc([N+](=O)[O-])cc1	5.88
CC(C)Oc1ccc(N2CC(C(=O)Nc3ccc4c(c3)OCO4)CC2=O)cc1 (centres unmarked)	2.72
CC(CCc1ccccc1)NC(=O)CCC1CCCC1 (centres unmarked)	-24.5
CSc1nsc(SCC(=O)Nc2c(C)n(C)n(-c3ccccc3)c2=O)n1	2.25
CCOC(=O)C1CCCN(C(=O)c2cc(-c3ccc(C)cc3)nc3ccccc23)C1 (centres unmarked)	-37.6
Br.C=CCn1c(=N)n(CC(=O)c2ccc(OC)cc2)c2ccccc21	-43.7
COc1ccc(-c2cc(C(F)(F)F)nc(SCC(=O)Nc3cc(C)on3)n2)cc1OC	10
CCCOc1ccc(C(=O)NNC(=S)NC(=O)c2cc(-c3ccc(Cl)cc3)nc3ccccc23)cc1	5.85
Cc1cc(Cl)ccc1OCC(O)CN1C(C)CCCC1C.Cl (centres unmarked)	-73.2
Cc1cc(C)c(C#N)c(SCC(=O)Nc2ccc(S(=O)(=O)Nc3ncccn3)cc2)n1	9.15
CCN(CC)C(=O)Oc1ccccc1NC(C)=O	11.2
O=C(Nc1ccccc1C(=O)O)c1cccc(NC(=O)c2ccco2)c1	20.8

Structure (SMILES)	hERG current change (%, negative = inhibition) at 10uM [%]
Cc1ccc(S(=O)(=O)N2CCOC23CCN(S(=O)(=O)c2c(C)cc(C)cc2C)CC3)cc1	-3.06
Cc1[nH]c2ccccc2c1C(=O)CN1C(=O)C(=O)N(C2CCCC2)C1=O	5.99
CC(C)Oc1ccc(CN2CCC(n3nccc3NC(=O)c3cccnc3)CC2)cc1	-70.4
CN(C)C(=O)C(NC(=O)c1ccccc1)=C(Cl)Cl	24.4
CC12CC3CC(C)(C1)CC(N)(C3)C2.O=[N+]([O-])O	-2.79
O=C(C1CCCC1)N1CCN(S(=O)(=O)c2ccc(Cl)cc2)CC1	-3.87
O=c1ccc(/C=C/c2ccccc2)nn1Cc1ccc(Cl)cc1Cl	8.47
CN(C)S(=O)(=O)c1ccc(NC(=O)COC(=O)CC2CC3CCC2C3)cc1 (centres unmarked)	-9.56
CCCCN(C)CC(O)Cn1cc(/C=C/C(=O)c2cccs2)c2ccccc21 (centres unmarked)	-33.7
CCc1ccc(NC(=O)COC(=O)C2(c3ccc(Cl)cc3)CCCC2)cc1	11.4
CN1CCc2c(sc3nc(NN)n(Cc4ccccc4)c(=O)c23)C1	2.12
Cc1ccc(-c2noc(CCC(=O)Nc3cc(C)ccn3)n2)cc1	9.8
CC(C)Cn1c(/C=C/c2ccco2)nc2ccccc21	5.62
COc1cccc(OC)c1CNC(=O)CCSCc1ccccc1F	-28.6
O=c1oc2cc(Oc3c([N+](=O)[O-])cc(C(F)(F)F)cc3[N+](=O)[O-])ccc2c2c1CCCC2	1.74
CSc1ncccc1C(=O)N1CCN(S(=O)(=O)c2ccccc2)CC1	19.8
O=S(=O)(Nc1cccc(-c2cn3c(n2)SCC3)c1)c1ccc(F)cc1F	-4.11
CCOC(=O)C(C)Sc1ncnc2nc[nH]c12 (centres unmarked)	-5.74
